{"source": "PubChem BioAssay AID504339", "about": "(National Center for Advancing Translational Sciences (NCATS), 2011)", "note": "Out of some 390,000 compounds screened, about 17,000 (4.4%) were called active. The shares of active, inactive and inconclusive entries below differ from those in the screen. The call rests on the fitted dose curve; in most records, active means well fitted inhibition curve with a large enough effect; inconclusive means small, poorly fitted or top-dose-only effect; inactive means no such curve, though single readings can be large or run the other way. A potency beside an inconclusive call is a rough fit, not a confirmed value. On the % scale 0 is the no-effect control and ±100 the full control effect; potency means the concentration at half of the fitted maximal effect; tags describe the fitted curve by direction and shape."}
{"biological_target": "Lysine-specific demethylase 4A (Homo sapiens) (UniProt O75164)", "sequence (O75164 whole entry, looked up, the tested form may be a part)": "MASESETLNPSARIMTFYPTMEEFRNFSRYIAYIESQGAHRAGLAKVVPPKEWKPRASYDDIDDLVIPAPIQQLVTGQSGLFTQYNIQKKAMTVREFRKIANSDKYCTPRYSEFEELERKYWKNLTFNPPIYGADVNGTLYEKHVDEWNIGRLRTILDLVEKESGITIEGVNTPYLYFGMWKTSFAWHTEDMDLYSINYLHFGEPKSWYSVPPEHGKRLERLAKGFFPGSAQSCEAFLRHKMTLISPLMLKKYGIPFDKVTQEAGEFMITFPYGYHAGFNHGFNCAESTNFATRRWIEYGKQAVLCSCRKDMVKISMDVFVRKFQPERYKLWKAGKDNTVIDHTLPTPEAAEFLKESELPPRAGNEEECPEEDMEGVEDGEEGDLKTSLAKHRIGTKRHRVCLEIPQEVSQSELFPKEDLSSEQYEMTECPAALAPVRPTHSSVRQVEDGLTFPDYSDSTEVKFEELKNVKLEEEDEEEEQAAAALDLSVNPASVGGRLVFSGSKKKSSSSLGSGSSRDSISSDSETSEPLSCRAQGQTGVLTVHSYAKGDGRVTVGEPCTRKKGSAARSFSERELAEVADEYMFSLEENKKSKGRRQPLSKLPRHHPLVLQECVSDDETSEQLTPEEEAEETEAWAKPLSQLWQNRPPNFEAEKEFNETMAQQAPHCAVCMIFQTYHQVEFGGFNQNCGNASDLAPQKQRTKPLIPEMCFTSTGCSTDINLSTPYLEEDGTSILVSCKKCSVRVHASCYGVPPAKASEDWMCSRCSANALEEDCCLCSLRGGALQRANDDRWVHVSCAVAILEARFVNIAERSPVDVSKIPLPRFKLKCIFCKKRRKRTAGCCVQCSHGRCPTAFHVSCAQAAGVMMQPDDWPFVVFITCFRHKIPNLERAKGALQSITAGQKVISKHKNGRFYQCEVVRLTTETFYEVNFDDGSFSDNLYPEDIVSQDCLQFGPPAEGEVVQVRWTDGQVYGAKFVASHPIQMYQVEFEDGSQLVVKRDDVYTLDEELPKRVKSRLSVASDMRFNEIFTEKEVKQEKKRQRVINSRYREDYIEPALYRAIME", "assay": "qHTS Assay for Inhibitors of JMJD2A-Tudor Domain; further: nearly all actives have a fitted effect of over 50% in size", "conditions": "AlphaScreen JMJD2A-Tudor / H3K4me3 peptide binding; activity change, negative = inhibition: at 114 µM (top of the series)"}
{"smiles": "Cc1ccc(C(=O)NNc2nc3ccccc3nc2C(F)(F)F)cc1", "Potency": "inconclusive: 89.1 µM [inhibitor, single point]"}
{"smiles": "Cc1cc(C(c2ccc(C)o2)c2ccc(C)o2)c(O)c([N+](=O)[O-])c1", "Potency": "active: 39.8 µM"}
{"smiles": "O=C(/C=C\\NCC(=O)c1ccccc1)c1ccc2ccccc2c1", "Potency": "inconclusive: 63.1 µM [inhibitor, single point]"}
{"smiles": "N#Cc1cccc2cnccc12", "Potency": "inconclusive: 31.6 µM [inhibitor, partial curve]"}
{"smiles": "COc1ccc(/C=C/C(=O)Nc2ccc(-n3nncc3-c3ccc(OC)c(OC)c3)cc2)cc1OC", "activity change, negative = inhibition": "inactive: -11.3%"}
{"smiles": "O=[N+]([O-])c1ccc(Cl)cc1CN1CCCCCC1", "Potency": "active: 20 µM"}
{"smiles": "CC1=NOC2(C1)N(C)c1ccccc1C2(C)C", "note": "(stereo not given)", "activity change, negative = inhibition": "inactive: -16.7%"}
{"smiles": "O=C(CN1CCCC1)Nc1ccc(Cl)cc1C(F)(F)F", "Potency": "inconclusive: 12.6 µM [inhibitor, full curve, poor fit]"}
{"smiles": "CN(C)NC1CCS(=O)(=O)C1", "note": "(stereo not given)", "Potency": "inconclusive: 89.1 µM [inhibitor, single point]"}
{"smiles": "O=C(COC(=O)CCS(=O)(=O)c1ccccc1)Nc1ccc(N2CCCCC2)cc1", "Potency": "inconclusive: 50.1 µM [inhibitor, partial curve]"}
{"smiles": "Cc1cc(-c2nn(-c3ccccc3F)cc2CN2CCN(c3ccncc3)CC2)c(C)s1", "Potency": "inconclusive: 14.1 µM [inhibitor, full curve]"}
{"smiles": "Cc1ccc(/C=N/n2c(-c3cccc(Cl)c3)n[nH]c2=S)o1", "Potency": "inconclusive: 11.2 µM [inhibitor, single point]"}
{"smiles": "O=C(O)c1ccc(/C=N\\Nc2ccc(S(=O)(=O)N3CCOCC3)cc2[N+](=O)[O-])cc1", "Potency": "inconclusive: 79.4 µM [inhibitor, partial curve]"}
{"smiles": "CC1CCCCC1NCC#CCOc1ccc(Cl)cc1", "note": "(stereo not given)", "Potency": "active: 20 µM"}
{"smiles": "c1n[nH]c(NC2=NCCC2)n1", "Potency": "active: 44.7 µM"}
{"smiles": "Cc1cccc(NC(=O)Cn2nnc(C(=O)NCc3cccs3)c2N)c1C", "Potency": "inconclusive: 35.5 µM [inhibitor, partial curve]"}
{"smiles": "O=C(c1ccc([N+](=O)[O-])cc1)N1CCC(Cc2ccccc2)CC1", "Potency": "inconclusive: 70.8 µM [inhibitor, single point]"}
{"smiles": "COc1cc(NC(=O)N2CCc3c(sc4c3CCCC4)C2c2ccccc2)cc(OC)c1OC", "note": "(stereo not given)", "Potency": "inconclusive: 25.1 µM [inhibitor, full curve]"}
{"smiles": "CCc1cc(C(=O)N=Nc2c(O)[nH]c3ccc([N+](=O)[O-])cc23)c2ccccc2n1", "Potency": "inconclusive: 39.8 µM [inhibitor, partial curve]"}
{"smiles": "Cc1ccc(C(=O)Oc2csc(=S)n2C(=O)c2ccc(C)cc2)cc1", "Potency": "inconclusive: 89.1 µM [inhibitor, single point]"}
